Data: ChEMBL document CHEMBL4888484, “Replenishing the malaria drug discovery pipeline: Screening and hit evaluation of the MMV Hit Generation Library 1 (HGL1) against asexual blood stage Plasmodium falciparum ,using a nano luciferase reporter read-out” (2022)
The whole screen tested about 150,000 compounds, of which about 540 (0.36%) showed an effect of 50% or more. Some of the results follow.

System: Plasmodium falciparum
Test: Primary screen in NF54 nanoGlo assay, in single point, at 2uM, 72h; a lower Z score goes with more inhibition
Format: functional, Erythrocyte
Conditions: timepoint 72 hour

**Q.** How did the “% Inhibition” value turn out when `COc1ccc(CCN(Cc2ccco2)C(=O)CN(C(=O)Nc2c(C)cccc2C)C(C)C)cc1OC` was run?
**A.** -5%

**Q.** And the Z score?
**A.** 0.86

**Q.** Which results are given for `Cc1nc(CN2C(=O)c3ccccc3CS2(=O)=O)sc1C`?
**A.** % Inhibition: 8%; Z score: -1.49

**Q.** For `Cn1cccc1C(=O)N1CCC[C@@]2(CO)CN(c3ncccn3)CC[C@H]12`, which “% Inhibition” value is on record?
**A.** -16%

**Q.** And the Z score?
**A.** 3.45

**Q.** Which “% Inhibition” value does the source give for `Clc1ccc(N2CCN(c3ccc(-c4nc(-c5ccccc5)no4)cn3)CC2)cc1` here?
**A.** -14%

**Q.** And the Z score?
**A.** 2.02

**Q.** Which “% Inhibition” value does the source give for `N#Cc1ccc(S(=O)(=O)N2CCC[C@H](Oc3cnccn3)C2)cc1` here?
**A.** -2%

**Q.** And the Z score?
**A.** 0.3

**Q.** How did the “% Inhibition” value turn out when `CC(C)n1nc(O)c2c(-c3cccc(OC(F)F)c3)c3sc(=O)[nH]c3nc21` was run?
**A.** 0%

**Q.** What about the Z score of the same compound?
**A.** 0.02

**Q.** For `CNC(=O)C(C)(C)CN[C@H]1CC2(CCOCC2)Oc2ccccc21`, which “% Inhibition” value is on record?
**A.** -16%

**Q.** And the Z score?
**A.** 2.14

**Q.** What does the source list for `COc1ccc(CN(C(=O)c2ccco2)c2nccs2)c(OC)c1`?
**A.** % Inhibition: 11%; Z score: -1.52

**Q.** What does the source list for `Cn1cc(-c2cncc(CNC(=O)c3cnccn3)c2)cn1`?
**A.** % Inhibition: 8%; Z score: -1.05

**Q.** How did the “% Inhibition” value turn out when `COc1ccccc1Nc1cc(Nc2ccccc2OC)n(S(=O)(=O)c2ccc(C)cc2)n1` was run?
**A.** 30%

**Q.** What about the Z score of the same compound?
**A.** -3.43

**Q.** What does the source list for `Cc1nsc(NC(=O)c2cc3c(s2)CCCCC3)n1`?
**A.** % Inhibition: -2%; Z score: 0.28

**Q.** Which “% Inhibition” value does the source give for `COc1cccc(CC(=O)Nc2ccn(-c3ccc(C#N)cc3)n2)c1` here?
**A.** -3%

**Q.** What about the Z score of the same compound?
**A.** 0.5

**Q.** For `CCCCc1csc(C(=O)N2CC3CCC2C3)n1` (stereo not drawn), which “% Inhibition” value is on record?
**A.** -2%

**Q.** What about the Z score of the same compound?
**A.** 0.33

**Q.** With `COCCN(Cc1scnc1C)C(=O)CCc1cncc(C)c1` as the compound, how does the “% Inhibition” value read?
**A.** 10%

**Q.** And the Z score?
**A.** -1.39

**Q.** How did the “% Inhibition” value turn out when `Cc1cc(C(=O)NC[C@H]2CC[C@H](CO)CC2)c(O)cn1` was run?
**A.** 0%

**Q.** And the Z score?
**A.** 0.03

**Q.** What does the source list for `Cc1cnc(NC(=O)[C@@H]2CCCN[C@@H]2C2CC2)s1`?
**A.** % Inhibition: 2%; Z score: -0.41

**Q.** With `CN(C[C@H]1COCCO1)C(=O)c1cc(C#N)c[nH]1` as the compound, how does the “% Inhibition” value read?
**A.** -29%

**Q.** What about the Z score of the same compound?
**A.** 2.66

**Q.** Which “% Inhibition” value does the source give for `Cc1nnc([C@H](C)Nc2ccc3c(c2)OC(F)(F)O3)o1` here?
**A.** -12%

**Q.** What about the Z score of the same compound?
**A.** 1.13

**Q.** How did the “% Inhibition” value turn out when `Cc1c[nH]c(CN2C[C@H](C(C)C)[C@@H](N)C2)c(C)c1=O` was run?
**A.** -14%

**Q.** And the Z score?
**A.** 1.24

**Q.** Which results are given for `Cn1ccc(Nc2ccccc2NC(=O)COC[C@H]2CCCO2)n1`?
**A.** % Inhibition: -9%; Z score: 1.13

**Q.** Which results are given for `O=C1NCCOCCCN(C(=O)Nc2ccccc2)[C@H]2CCC[C@@H]12`?
**A.** % Inhibition: 7%; Z score: -1.04

**Q.** Which “% Inhibition” value does the source give for `O=C(CCc1cc2n(n1)CCCN(Cc1nccs1)C2)N1CCCC1` here?
**A.** 4%

**Q.** And the Z score?
**A.** -0.64

**Q.** For `Cc1nnc([C@@H]2CC3(CCN(C(=O)c4cccnc4)CC3)CN2CCc2ccccc2)o1`, which “% Inhibition” value is on record?
**A.** -6%

**Q.** What about the Z score of the same compound?
**A.** 0.83

**Q.** Which results are given for `Cc1ccnc(CNC(=O)N2CC(C)OC(C3CC3)C2)c1` (stereo not drawn)?
**A.** % Inhibition: -5%; Z score: 0.97

**Q.** For `Fc1ccccc1N1CCN(Cc2cc3n(n2)CCNC3)CC1`, which “% Inhibition” value is on record?
**A.** 13%

**Q.** And the Z score?
**A.** -1.72

**Q.** `CC(C)OC(=O)CCNC(=O)N[C@@H]1COC(=O)C1` was tested. Which “% Inhibition” value did it give?
**A.** -8%

**Q.** And the Z score?
**A.** 0.99

**Q.** How did the “% Inhibition” value turn out when `CC(C)[C@@H]1CN(C(=O)c2ccc(F)cn2)CCCN1CC1CC1` was run?
**A.** -9%

**Q.** And the Z score?
**A.** 1

**Q.** For `COc1cccc(NC(=O)c2c(-c3cccnc3)nc3ccccc3c2-c2ccccc2)c1`, which “% Inhibition” value is on record?
**A.** -9%

**Q.** What about the Z score of the same compound?
**A.** 1.16

**Q.** `O=C(c1nccc2ccccc12)N1CC[C@@H]2CN(Cc3cccnc3)[C@@H]2C1` was tested. Which “% Inhibition” value did it give?
**A.** -12%

**Q.** And the Z score?
**A.** 1.52

**Q.** With `Cc1cnc(C(=O)NCC2CCN(Cc3cc4c(cc3Cl)OCO4)CC2)cn1` as the compound, how does the “% Inhibition” value read?
**A.** -2%

**Q.** What about the Z score of the same compound?
**A.** 0.39

**Q.** `COCc1ccc(CNc2cc(C)on2)cc1` was tested. Which “% Inhibition” value did it give?
**A.** -12%

**Q.** And the Z score?
**A.** 1.82

**Q.** Which “% Inhibition” value does the source give for `Cc1nc(C=Cc2cn(C3CCC3)nn2)sc1Br` here?
**A.** -6%

**Q.** What about the Z score of the same compound?
**A.** 0.84

**Q.** For `COC[C@@H]1[C@H](C(=O)NCCC(C)C)CCC(=O)N1C`, which “% Inhibition” value is on record?
**A.** 8%

**Q.** What about the Z score of the same compound?
**A.** -1.07

**Q.** Which “% Inhibition” value does the source give for `O=C(c1ccn(C2CCCCC2)n1)N1CCc2nc[nH]c(=O)c2C1` here?
**A.** -12%

**Q.** What about the Z score of the same compound?
**A.** 1.02

**Q.** Which results are given for `Cn1cc(C(NC(=O)NC2CCCC2)[C@H]2C[C@H](O)C2)cn1` (stereo partly drawn)?
**A.** % Inhibition: -9%; Z score: 1.71

**Q.** Which results are given for `COc1cc(OC)cc(C(=O)N2CCN(C3=Nc4cc(C(F)(F)F)ccc4Oc4ccc(OC)cc43)C[C@@H]2C)c1`?
**A.** % Inhibition: 6%; Z score: -0.81

**Q.** What does the source list for `O=C(NC[C@H]1CCCN(Cc2cncs2)C1)c1ccon1`?
**A.** % Inhibition: -2%; Z score: 0.28

**Q.** How did the “% Inhibition” value turn out when `CCn1c2c(c3ccccc31)CN(C(=O)C1CCC1)CC2` was run?
**A.** -11%

**Q.** What about the Z score of the same compound?
**A.** 1.11

**Q.** How did the “% Inhibition” value turn out when `Cc1cc(NC(=O)NCCN2Cc3ccccc3OCC2=O)cs1` was run?
**A.** -4%

**Q.** And the Z score?
**A.** 0.65

**Q.** How did the “% Inhibition” value turn out when `NS(=O)(=O)C[C@H]1CCCN(C(=O)c2ccncc2C(F)(F)F)C1` was run?
**A.** -21%

**Q.** And the Z score?
**A.** 2.22

**Q.** `O=c1[nH]nc(-c2ccccc2)c2nc[nH]c12` was tested. Which “% Inhibition” value did it give?
**A.** 25%

**Q.** What about the Z score of the same compound?
**A.** -2.82

**Q.** `Cc1cc(C)n(CCCC(=O)N[C@@H](C)c2nc(-c3cccnc3)no2)n1` was tested. Which “% Inhibition” value did it give?
**A.** 0%

**Q.** And the Z score?
**A.** 0.01

**Q.** What does the source list for `Cc1cc(NCCc2ccns2)ncn1`?
**A.** % Inhibition: -6%; Z score: 1.17

**Q.** Which results are given for `O=C1CC2(CCN(c3noc(-c4ccccc4)n3)CC2)CN1Cc1ccccc1`?
**A.** % Inhibition: -4%; Z score: 0.55

**Q.** `Cc1nc2ccc(NC(=O)N[C@H]3CCCN(c4ccccc4F)C3)cn2n1` was tested. Which “% Inhibition” value did it give?
**A.** -13%

**Q.** What about the Z score of the same compound?
**A.** 1.35

**Q.** Which “% Inhibition” value does the source give for `COC1(CNC(=O)NCC(C)(C)C(C)C)CCOCC1` here?
**A.** -9%

**Q.** And the Z score?
**A.** 1.34

**Q.** `CCN1CCN(C(=O)c2ccc(C)c(NS(=O)(=O)c3ccc(C)cc3)c2)CC1` was tested. Which “% Inhibition” value did it give?
**A.** -21%

**Q.** What about the Z score of the same compound?
**A.** 2.46

**Q.** Which “% Inhibition” value does the source give for `COc1cccc([C@@H]2Cn3nnc(-c4nc(-c5cccc(Cl)c5)no4)c3CO2)c1` here?
**A.** -25%

**Q.** What about the Z score of the same compound?
**A.** 2.27

**Q.** How did the “% Inhibition” value turn out when `COc1ccc(-c2cn(CC(=O)Nc3ccc(F)cc3)nc2N(C)C)cc1` was run?
**A.** -12%

**Q.** And the Z score?
**A.** 1.39

**Q.** Which “% Inhibition” value does the source give for `Cc1cc(-c2ncccc2NC(=O)NC2CCC(S(C)(=O)=O)CC2)cs1` (stereo not drawn) here?
**A.** -5%

**Q.** And the Z score?
**A.** 0.96

**Q.** For `CC(C(=O)Nc1ccc2c(c1)OCCCO2)N1CC2(CCC2)C1C1CCCO1` (stereo not drawn), which “% Inhibition” value is on record?
**A.** -17%

**Q.** What about the Z score of the same compound?
**A.** 1.7

**Q.** `COc1ccc2oc(CN[C@@H](C)Cn3cncn3)nc2c1` was tested. Which “% Inhibition” value did it give?
**A.** -16%

**Q.** What about the Z score of the same compound?
**A.** 2.75

**Q.** Which results are given for `CCCN1C[C@@H](NC(=O)c2ccccc2N2CCC(=O)NC2=O)CC1=O`?
**A.** % Inhibition: -16%; Z score: 2.33

**Q.** For `Cc1[nH]c(=O)[nH]c(=O)c1CC(=O)N(CCC(N)=O)Cc1ccccc1`, which “% Inhibition” value is on record?
**A.** -6%

**Q.** What about the Z score of the same compound?
**A.** 1.17
